The campaign covered roughly 73,000 compounds. About 1,800 (2.5%) were called active. This list was built around the results that the source calls inconclusive (neither active nor inactive); the mix of calls is not that of the screen. The call rests on the fitted dose curve; in most records, active means well fitted activation curve with a large enough effect; inconclusive means small, poorly fitted or top-dose-only effect; inactive means no such curve, though single readings can be large or run the other way. Potencies of inconclusive entries are left out as doubtful fits.
Assay: qHTS Assay for Agonists of the Thyroid Stimulating Hormone Receptor: Activators of Intracellular cAMP Concentrations in Parental HEK 293; further: nearly all actives have a fitted effect of over 55% in size; on activation: % of control where 0% means no effect
Details: parental HEK293 CNG cAMP sensor, membrane potential fluorescence; activation: at 57.1 µM (top of the series) unless noted
Summary of the method: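 Parental HEK 293 cells stably expressing a cAMP-gated CNG channel were loaded with membrane potential dye containing 100 uM RO 20-1724 for 60 min. Compound added for 30 min; depolarization read as fluorescence intensity at 590 nm.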
For `CC(C)(C)n1nnnc1CN(Cc1ccco1)Cc1cc2cc3c(cc2[nH]c1=O)OCO3`, the Potency was “inactive”.
For `CSc1nc(C)c(C(=O)Nc2ccccc2)c(C)c1C#N`, the Potency was active: 25.1 µM.
With `COCCn1nnnc1C(CC(C)C)N1CCN(c2cccc(OC)c2)CC1` (stereo unspecified) the Potency was inconclusive [activator, partial curve].
In the case of `CN1CCN(C2=C(Cl)C(=O)N(C3CCCCC3)C2=O)CC1`, the Potency is reported as “inactive”.
With `CC(C)CC(c1nnnn1Cc1ccco1)N1CCN(c2cccc(Cl)c2)CC1` (stereo unspecified) the Potency was active: 10 µM.
In the case of `C=CCNC(=O)C(C#N)c1nc2ccccc2nc1N1CCN(Cc2ccccc2)CC1` (stereo unspecified), the Potency is reported as “inactive”.
For `COc1ccc(N2C(=O)C(CC(=O)Nc3ccccc3)N(Cc3ccc4c(c3)OCO4)C2=O)cc1` (stereo unspecified), the Potency was inconclusive [activator, single point].
In the case of `CC1=CC(C)(C)N(C(=O)c2ccccc2)c2ccccc21`, the Potency is reported as inconclusive [activator, partial curve].
With `O=C(Nc1nc2ccccc2s1)C1CCCO1` (stereo unspecified) the Potency was “inactive”.
In the case of `CCN1CCN(C(=O)c2ccccc2N(Cc2ccccc2)S(C)(=O)=O)CC1`, the Potency is reported as inconclusive [activator, single point].
With `O=C(O)c1cc2nc3c(c(C(F)(F)F)n2n1)CCc1ccccc1-3` the activation was inactive: 6.55% [at 11.4 µM].
For `COc1cccc(C(=O)Nc2ccc(NC(=O)c3ccco3)nc2)c1`, the Potency was inconclusive [activator, single point].
With `COc1ccc(NC(=O)Nc2cccc(OC)c2)cc1` the Potency was inconclusive [activator, single point].
For `CC(C)(C)c1csc(NC(=O)c2cccs2)n1`, the Potency was “inactive”.
For `Cc1cc2n(n1)C(c1sccc1C)Nc1ccccc1-2` (stereo unspecified), the Potency was “inactive”.
For `Cc1ccc2cccc(Oc3nnnn3-c3ccccc3)c2n1`, the Potency was inconclusive [activator, single point].
For `Cc1ccc(NC(=O)CN2CCC3(O)CCCCC3C2c2ccc3c(c2)OCO3)c(C)c1` (stereo unspecified), the Potency was inconclusive [activator, partial curve].
For `Clc1ccc(CSCCc2ccncc2)cc1Cl`, the activation was inactive: 10.5% [at 11.4 µM].
For `CCN(CC(=O)Nc1ccc2c(c1)OCCO2)Cc1cc(=O)oc2cc(C)c(C)cc12`, the Potency was inconclusive [activator, single point].
In the case of `CN1CCN(c2ncc3nc(-c4cc(F)cc(F)c4)c(=O)n(CCc4ccccc4)c3n2)CC1`, the Potency is reported as “inactive”.
In the case of `CC1CCC2C(C1)c1sc(=O)[nH]c1SC2(C)C` (stereo unspecified), the Potency is reported as “inactive”.
In the case of `N#Cc1c(NC(=O)CSc2nc3ccccc3c(=O)n2Cc2ccco2)sc2c1CCCC2`, the Potency is reported as inconclusive [activator, single point].
With `Cc1nnc(NC(=O)c2sc3ccccc3c2Cl)s1` the Potency was “inactive”.
For `Clc1ccc(COn2nnc3ccccc32)c(Cl)c1`, the Potency was inconclusive [activator, single point].
In the case of `CCOC(=O)C(C(=O)Nc1ccccc1)C1CCCCC1` (stereo unspecified), the Potency is reported as inconclusive [activator, partial curve].
For `CN(C)c1nc(-c2cccc(C#N)c2)nc2ccccc12`, the Potency was inconclusive [activator, partial curve].
In the case of `CC(C)(C)C(=O)/C=c1\[nH]c(=O)/c(=C\c2ccc(C#N)cc2)s1`, the Potency is reported as inconclusive [activator, single point].
For `Cc1ccc(C(C(=O)NC2CCCC2)N(Cc2ccc(F)cc2)C(=O)c2csnn2)o1` (stereo unspecified), the Potency was active: 15.8 µM.
For `COc1ccccc1-c1cncnc1NCc1ccccc1`, the Potency was inconclusive [activator, single point].
In the case of `CC(=O)Oc1ccc(NC(=O)CSc2ccccc2)cc1`, the Potency is reported as inconclusive [activator, single point].
For `O=C(CCC1CCCCC1)Nc1c2c(nn1-c1ccc(F)cc1)CS(=O)(=O)C2`, the Potency was active: 3.16 µM.
In the case of `Cn1c(=O)cnc2cnc(Nc3ccccc3)nc21`, the Potency is reported as inconclusive [activator, single point].
For `COc1ccccc1CNc1cc(-c2ccccc2C)ncn1`, the Potency was active: 15.8 µM.
For `Cc1oc2cc(O)cc(O)c2c(=O)c1-c1ccc2c(c1)OCCCO2`, the Potency was “inactive”.
With `COc1cccc(Nc2ncc3nc(C)c(=O)n(CCc4ccccc4)c3n2)c1` the Potency was inconclusive [activator, partial curve].
For `O=C(Cn1nnc(-c2ccc(Cl)cc2)n1)NCC1CCCCC1`, the Potency was inconclusive [activator, single point].
In the case of `O=C(O)c1cc(N=Cc2ccccc2O)cc(C(=O)O)c1`, the Potency is reported as inconclusive [activator, single point].
In the case of `CCCNC(=O)Cn1cnc2sc(C(=O)N3CCCC(C(=O)OCC)C3)c(C)c2c1=O` (stereo unspecified), the Potency is reported as inconclusive [activator, single point].
For `COc1ccc2c3c(c(=O)oc2c1OCC(=O)C(C)(C)C)CCCC3`, the Potency was inconclusive [activator, partial curve, poor fit].
With `COc1ccccc1C(c1nnnn1Cc1ccccc1)N1CCN(c2nc3ccccc3s2)CC1` (stereo unspecified) the Potency was “inactive”.
In the case of `COc1ccc(OCCN(C)Cc2ccccc2)cc1`, the Potency is reported as inconclusive [activator, full curve, poor fit].
In the case of `CC(=O)N(CC(O)CN(C(C)=O)c1c(I)c(C(=O)NC[C@@H](O)CO)c(I)c(C(=O)NC[C@@H](O)CO)c1I)c1c(I)c(C(=O)NC[C@@H](O)CO)c(I)c(C(=O)NC[C@@H](O)CO)c1I`, the Potency is reported as “inactive”.
In the case of `Cc1[nH]n2c(=O)c3c(nc2c1-c1ccc(Cl)cc1)CCC3`, the Potency is reported as “inactive”.
With `O=c1c2ccccc2nnn1CSc1nc2ccccc2c(=O)n1Cc1ccco1` the Potency was inconclusive [activator, partial curve].
In the case of `O=C(CCC1N=C2c3ccccc3N=C(SCc3ccccc3Cl)N2C1=O)NCc1ccco1` (stereo unspecified), the Potency is reported as inconclusive [activator, partial curve].
In the case of `C#CCCCO/N=C1/[C@H]2O[C@@H]2[C@@H](O)[C@H]2[C@H]1CCn1c(=O)n(-c3ccccc3)c(=O)n12`, the activation is reported as inactive: 7.16% [at 11.4 µM].
Potency means the concentration at half of the fitted maximal effect; tags describe the fitted curve by direction and shape.
